This passage reports GI50 and TGI results from PubChem BioAssay (NCI).

“And” between values parts separate entries of the source, which are not always exact repeats. Identical values can stand only once.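 A five-concentration, 48-hour dose response in 96-well plates underlies each endpoint, interpolated linearly between surrounding concentrations. Here, GI50 denotes the concentration required for 50% inhibition of growth. The concentration for full growth arrest is given as TGI.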

This experiment deals with NCI-H322M lung. Nature of the experiment: NCI-60 cell line screen, 48 h.

As to `CN1CCN(C(=O)c2ccc(NC(=O)Nc3ccc(N(C)c4ccnc(Nc5ccc(CS(C)(=O)=O)cc5)n4)cc3)cc2)CC1`, the GI50 was more than 25 µM and the TGI was more than 25 µM.

Consider `CCCCCCN(CCCCCC)C(=N)c1ccnc2ccccc12`, for which the GI50 is 7.75 µM and the TGI turned out to be 21.5 µM.

`CCCCCCCCN(CCCCCCCC)C(=N)c1ccnc2ccccc12`: the GI50 was 1.31 µM and the TGI amounted to 2.85 µM.

Molecule `Cc1cc(S(=O)(=O)Nc2nc(N)n(-c3cnc4ccccc4n3)n2)c(S)cc1Cl` showed a TGI of more than 100 µM.

For `COC(=O)[C@H](CCSC)NC(=O)c1ccc(CNC(=O)/C=C/c2cccc(Oc3ccccc3)c2)cc1`, the TGI was more than 100 µM.

The molecule `COc1ccc(C2Oc3c(cccc3OC)C=C2[N+](=O)[O-])cc1OC` (centres undefined) showed a TGI of more than 100 µM.

As for `C/C(CC(=O)CCCC(=O)Nc1ccc(Cl)cc1Cl)=N/NC(=O)CC#N`, the TGI was more than 100 µM.

`O=[N+]([O-])C(/C(Cl)=C(/Cl)N1CCCCC1)=C1\NCCO1` registered a TGI of more than 100 µM.

`CC1(C)S[C@@H]2[C@H](NC(=O)CCC[C@@H](N)C(=O)O)C(=O)N2[C@H]1C(=O)O` yielded a TGI of more than 50 µM.

`Cc1cc(Cl)nc(NC(=O)CSc2ccc(Cl)cc2)n1` had a TGI of more than 100 µM.

Turning to `CC(C)=CCNc1ncnc2c1ncn2CCC(=O)OC(C)(C)C`, the TGI was more than 100 µM.

`Cn1c(=O)n(-c2c3ccccc3c(Cl)c3ccccc23)n(C(C)(C)C)c1=O` had a TGI of more than 100 µM.

As to `CCCSc1cc(Cl)c(C)cc1S(=O)(=O)n1cc[nH]c1=O`, the TGI is more than 100 µM.

For `O=C(O)C(Cc1ccc(O)cn1)NC(=O)C(F)(F)F` (centres undefined), the TGI is more than 100 µM.

`O=C(O)/C(Cl)=C(\Cl)Nc1cccc(C(F)(F)F)c1` returned a TGI of 31.2 µM.

On to `C=CCNC1=C2C[C@@H](C)C[C@@H](OC)[C@H](OC(=O)CN(C)C)[C@H](C)/C=C(\C)[C@@H](OC(N)=O)[C@H](OC)/C=C\C=C(/C)C(=O)NC(=CC1=O)C2=O`, for which the TGI worked out at 21.1 µM.

Molecule `COc1cccc(/C=C(/C(=O)O)c2cc(OC)c(OC)c(OC)c2)c1` returned a TGI of more than 100 µM.

`CCOC(=O)CSc1nc2ccccc2c(=O)n1N` displayed a TGI of more than 100 µM.

With `COc1cc2c(c(OC)c1OC)-c1ccc(OC)c(=O)cc1[C@@H](NC(=O)CCl)CC2`, the GI50 was less than 0.0189 µM and the TGI amounted to 19.5 µM.

Turning to `C/C(=N\O)c1sc(-n2nc(-c3ccccc3)cc2-c2ccccc2)nc1C`, the TGI is more than 31.6 µM.

Take `C[C@H]1CCC/C=C/[C@@H]2C[C@H](O)C[C@H]2[C@H](O)[C@H](S(=O)c2ccc(O)cc2)CC(=O)O1` (some centres undefined): the GI50 was 0.0393 µM and the TGI came out at 2.24 µM.

In the case of `CCc1cc(-c2nsc(=O)o2)c(S(=O)(=O)CC)s1`, the TGI was more than 100 µM.

The molecule `c1cncc(C2c3[nH]c4ccccc4c3CCN2CCCN2CCCCC2)c1` (centres undefined) yielded a TGI of more than 100 µM.

For the molecule `O=C(CCl)N1CCCCC1C1(c2cc3ccccc3[nH]2)OCCO1` (centres undefined), the TGI is 14.7 µM.

`CC(=O)OCC1OC(n2c(C)c(N=Nc3ccc(C)cc3)c(C)c(C#N)c2=S)C(OC(C)=O)C(OC(C)=O)C1OC(C)=O` (centres undefined): the TGI was more than 100 µM.

Molecule `COC1=CC(=O)c2ccc(C(C)C)cc2C1(C)C1=NC(C)(C)CO1` (centres undefined) returned a TGI of more than 100 µM.

Regarding `O=C(NNC(=S)Nc1ccccc1)C12CC3CC(CC(C3)C1)C2`, the TGI is more than 100 µM.

With `O=C1O/C(=C\c2ccc(O)c(Br)c2)C(c2ccc(O)cc2)=C1Cl`, the TGI is more than 100 µM.

The molecule `c1ccc(COCC23CCN(Cc4ccccc4)C(CC(OCc4ccccc4)C2)S3)cc1` (centres undefined) yielded a TGI of more than 100 µM.

Take `COc1cccc(-c2nn(-c3ccccc3)cc2-c2ccnc(NCCNS(=O)(=O)c3ccc(C(F)(F)F)cc3)c2)c1`: the GI50 was 4.67 µM and the TGI was more than 100 µM.

For `CC(C)C1C(=O)N2CCCC2C2(O)OC(NC(=O)C3C=C4c5cccc6[nH]cc(c56)CC4N(C)C3)(C(C)C)C(=O)N12` (centres undefined), the TGI was more than 100 µM.

Turning to `CCOC(=O)CSc1nc(-c2ccc(OC)cc2)c(C#N)c(=O)[nH]1`, the TGI was more than 100 µM.

On to `COc1cc2[nH]c(C(=O)c3cc(OC)c(OC)c(OC)c3)c(N)c2cc1C#CCO`, for which the GI50 is 0.705 µM and the TGI is more than 100 µM.

With `CCOC(=O)[C@H](CSSc1ncnc2cc[nH]c12)NC(=O)[C@@H](C)c1ccc2cc(OC)ccc2c1`, the GI50 was 1.81 µM and the TGI is more than 100 µM.

As to `CC1(C)CC23C(=O)N(c4ccccc4)C(=Nc4ccccc4)NC2=CC(C#N)=C(C#N)C3O1` (centres undefined), the TGI was more than 100 µM.

As to `c1ccc(N/N=C2\CC(c3ccccc3)Oc3ccccc32)cc1` (centres undefined), the TGI was more than 100 µM.

`COC(=O)c1cccc(NC(=O)Nc2ccc3oc(=O)c4ccccc4c3c2)c1`: the GI50 was more than 100 µM and the TGI is more than 100 µM.

As to `O=C1C(=O)c2cc([N+](=O)[O-])ccc2-c2ccccc21`, the GI50 is 3.33 µM and the TGI is 10.7 µM.

As to `CCC1(O)CC(OC2CC(N(C)C)C(OC3CC(O)C(OC4OC(C)C(=O)C=C4N)C(C)O3)C(C)O2)c2c(O)c3c(c(O)c2C1C(=O)OC)C(=O)c1cccc(O)c1C3=O` (centres undefined), the TGI was determined as 0.592 µM.

On to `N=c1ccn2c(n1)OC1C(OP(=O)(O)O)C(CO)OC12` (centres undefined), for which the TGI was more than 100 µM.

The molecule `Nn1c(CCCl)nc2c(Br)cc(Br)cc2c1=O` gave a TGI of 86.5 µM.

In turn, `Cc1cc(C)c(C(=O)O)c(N)c1O` had a TGI of more than 100 µM.

Molecule `Cc1c(O)c(OC2OC(CO)C(O)C(O)C2O)cc2c1CC[C@@H]1C2(C)C(=O)C[C@]2(C)[C@@H]([C@@](C)(O)C(O)/C=C/C(C)(C)O)[C@H](O)C[C@@]12C` (some centres undefined) displayed a TGI of more than 100 µM.

For the molecule `COc1ccc(OC)c(/C=C/c2nnc(Nc3ccc(Cl)cc3)o2)c1`, the GI50 is 30.5 µM and the TGI is more than 100 µM.

With `COC(=O)c1cc(Br)c(C(=O)C(Cl)(Cl)Cl)[nH]1`, the TGI is more than 100 µM.

The molecule `N#Cc1c(C#N)c(-c2cccc([N+](=O)[O-])c2)n(-c2ccccc2)c1N` yielded a TGI of more than 100 µM.

In the case of `CC(=O)[CH-]C(=O)c1ccccc1.CC(=O)[CH-]C(=O)c1ccccc1.O=C([O-])C[O-].O=C([O-])C[O-].[Ti+4]`, the GI50 was more than 100 µM and the TGI is more than 100 µM.

`CCOC(=O)C(NNS(=O)(=O)c1ccc(C)cc1)S(=O)(=O)C(F)(F)C(F)(F)C(F)(F)C(F)(F)F` (centres undefined) gave a TGI of more than 100 µM.

Molecule `O=C1CCC(=O)N1CNc1ccc2c(c1)Sc1ccccc1O2` showed a TGI of more than 100 µM.

Regarding `Nc1ccccc1NC(=O)c1ccc(CSc2nc(N3CCOCC3)c3cccn3n2)cc1`, the GI50 is 1.81 µM and the TGI was more than 100 µM.

In the case of `O=c1oc2ccc(Cl)cc2c(=O)n1-c1ccc(Cl)cc1F`, the GI50 was 0.365 µM and the TGI amounted to 15.6 µM.

In turn, `CC(=O)N1NC(c2ccccc2)=CC(=O)/C1=C/C(=O)c1ccccc1` returned a TGI of more than 100 µM.

`O=S(=O)(/C=C/C=C/S(=O)(=O)c1ccccc1)c1ccccc1` returned a TGI of 28.7 µM.

In turn, `Cc1cc(N(CCOS(C)(=O)=O)CCOS(C)(=O)=O)ccc1C=Nc1ccc(-c2csc(-c3ccccc3)n2)c(Cl)c1` had a TGI of 41.9 µM.

`COc1cc(CC2CCc3nc(N)nc(N)c3C2)cc(OC)c1OC` (centres undefined) showed a TGI of more than 100 µM.

In the case of `O=S(=O)(O)c1cc(S(=O)(=O)O)c2c(N=Nc3cccc4ccccc34)c(O)ccc2c1`, the TGI is more than 100 µM.

Turning to `COC(=O)/C=C\c1ccc2c(c1)CC1(C2)Cc2ccc(/C=C/C(=O)OC)cc2C1` (centres undefined), the TGI was more than 31.6 µM.

The molecule `C[C@]12CC[C@@H]3c4ccc(OC(=O)c5ccccc5)cc4CC[C@H]3[C@@H]1CCC2OC(=O)c1cccc2c(=O)c3ccccc3[nH]c12` (some centres undefined) had a TGI of 47.3 µM.

Molecule `CCOC(=O)C1C(=O)CC(C)(O)C(C(=O)OCC)C1c1ccc(N(C)C)cc1` (centres undefined) displayed a TGI of more than 100 µM.

With `CC(=O)C1(c2ccccc2)CCN(Cn2sc3nc(C)cc(C)c3c2=O)CC1`, the TGI was more than 100 µM.

`COC(=O)[C@@H]1O[C@]12C(CO[Si](C)(C)C(C)(C)C)OC(n1ccc(=O)[nH]c1=O)C2O[Si](C)(C)C(C)(C)C` (some centres undefined) gave a TGI of more than 100 µM.

Turning to `Cc1nnc(Nc2ccc(Cl)cc2)o1`, the TGI is more than 10 µM.

`COc1cccc2c1C(=O)C(=O)c1c-2oc(=O)c2cc(C)cc(OC)c12` returned a TGI of more than 75 µM.

`N=c1c2c(ncn1N)Oc1c(c(-c3ccccc3)nn1-c1ccccc1)C2c1ccc(Cl)cc1` (centres undefined) displayed a TGI of 3.31 µM.

`COc1ccc2cc(C(=O)c3ccccc3C(=O)O)ccc2c1` registered a TGI of more than 100 µM.

`C[C@H](c1ccc(Cl)cc1N)N1C(=O)c2cc(I)ccc2N(CCCN2CCN(C)CC2)C(=O)[C@@H]1c1ccc(Cl)cc1`: the GI50 is 1.54 µM and the TGI worked out at 2.94 µM.

`CC12CN(CC[N+](C)(C)C)CC1(C)C1CCC2O1` (centres undefined) yielded a TGI of more than 100 µM.

As for `COc1ccc(-c2oc3c(CC(=O)O)cccc3c(=O)c2OC)cc1`, the TGI was more than 100 µM.

In the case of `CC(=O)CC(=O)N(CCN(C(=O)CC(C)=O)c1ccccc1)c1ccccc1`, the TGI was more than 100 µM.

Molecule `O=C(O)C1C2C=CC(O2)C1C(=O)Nc1ccccc1` (centres undefined) came in with a TGI of more than 100 µM.

The molecule `CC1(C)CCC(=O)c2c(O)ccc(O)c21` yielded a TGI of more than 100 µM.

With `C1COC2SC3=C(SC(=C4SC5=C(SCCS5)S4)S3)SC2O1` (centres undefined), the TGI is more than 100 µM.

On to `CCCCCCCC[N+](C)(C)Cc1ccc(C[N+](C)(C)CCCCCCCC)cc1`, for which the TGI is more than 100 µM.

For `Nc1ncc(-c2cnn(C3CCNCC3)c2)cc1-c1nc2ccccc2o1`, the GI50 is 0.907 µM and the TGI turned out to be 8.37 µM.

For `CN(C)CCOc1cc2c(c3ccccc13)-c1ccccc1C2=O`, the TGI came to 6.09 µM.

For the molecule `CC1=CC(=O)C(C)(C2=NC(C)(C)CO2)c2ccccc21` (centres undefined), the TGI was more than 100 µM.

In turn, `CC[C@H](C)c1occ2c(O)c(C(=O)O)c(=O)cc-2c1C` had a TGI of 71 µM.

In turn, `O=C(O)c1ccc(Nc2ccnc3cc(Cl)ccc23)cc1O` displayed a TGI of more than 100 µM.

As for `CC(=O)OCc1nc(C#N)c(N)o1`, the TGI is more than 100 µM.

As to `CCN1C(C)=NC2C(=O)c3ccccc3C(=O)C21` (centres undefined), the TGI was more than 100 µM.

For `O=C(O)CN1CCNCCN(CC(=O)O)CC1`, the TGI is more than 100 µM.

For `Nc1nc(N)c2nc(CNc3ccc(C(=O)CC(CCC(=O)O)C(=O)O)cc3)cnc2n1` (centres undefined), the GI50 is 4.21 µM and the TGI is more than 100 µM.

`COc1ccc(-c2cc(-c3ccc(Nc4nc(Nc5ccc(Cl)cc5)nc(Nc5ccc(Cl)cc5)n4)cc3)no2)cc1`: the GI50 was 23 µM and the TGI is more than 100 µM.

As to `NC1=NC(=O)N2CC12` (centres undefined), the GI50 is 538 µM; the TGI was > 100 µM and 1170 µM.

On to `C=C(C)C1CC=C(C(=O)O)CC1` (centres undefined), for which the TGI turned out to be 4580 µM.
